Test results from the supplement of paper PMC6135742.
Structures can show the parent of a compound that is named as a salt. ± gives the standard deviation of the averaged measurements. Over roughly 2,600 compounds, “MBP+ mature oligodendrocyte number relative to DMSO vehicle control” has its median near -0.34; the highest 2% begin near 13. Some of the results follow.

These compounds were tested on jimpy (Plp1 jimpy) mouse iPSC-derived oligodendrocyte progenitor cells (assay: MBP+ mature oligodendrocyte number relative to DMSO vehicle control (SDs above negative control mean); higher = more surviving jimpy oligodendrocytes (rescue)). Conditions: 10 µM; 3 days.
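Also: 10 µM single dose with 3-day oligodendrocyte differentiation.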

Q: `CCOC(=O)C1=C[C@]2(CC)CCCN3CCc4c(n1c1ccccc41)[C@@H]32` [Vinpocetine] was tested. Which “MBP+ mature oligodendrocyte number” value did it give?
A: -1.07

Q: For `CC(C)c1cc(C(=O)N2Cc3ccc(CN4CCN(C)CC4)cc3C2)c(O)cc1O`, which “MBP+ mature oligodendrocyte number” value is on record?
A: < -6.7

Q: With `Cc1nc(NC(=O)N2CCC[C@H]2C(N)=O)sc1-c1ccnc(C(C)(C)C(F)(F)F)c1` as the compound, how does the “MBP+ mature oligodendrocyte number” value read?
A: -5.69

Q: `CC(C)C[C@H](NC(=O)[C@H]1O[C@@H]1C(=O)O)C(=O)NCCCCN=C(N)N` was tested. Which “MBP+ mature oligodendrocyte number” value did it give?
A: -4.25 ± 0.29

Q: `CC1(C)NC(=O)N(c2ccc([N+](=O)[O-])c(C(F)(F)F)c2)C1=O` [Nilutamide] was tested. Which “MBP+ mature oligodendrocyte number” value did it give?
A: -0.755

Q: For `CN(C)Cc1ccc(-c2nc3cccc4c3n2CCNC4=O)cc1`, which “MBP+ mature oligodendrocyte number” value is on record?
A: 2.97

Q: `O=C(/C=C\n1cnc(-c2cc(C(F)(F)F)cc(C(F)(F)F)c2)n1)NNc1cnccn1` was tested. Which “MBP+ mature oligodendrocyte number” value did it give?
A: -6.01

Q: For `Cc1[nH]c(/C=C2\C(=O)Nc3ccc(S(=O)(=O)N(C)c4cccc(Cl)c4)cc32)c(C)c1C(=O)N1CCN(C)CC1`, which “MBP+ mature oligodendrocyte number” value is on record?
A: < -6.7

Q: With `C=C(C)[C@@H]1CC=C(C(=O)O)CC1` [(-)-Perillic acid] as the compound, how does the “MBP+ mature oligodendrocyte number” value read?
A: -0.711

Q: With `COC(=O)[C@@H]1[C@H]2C[C@H]3c4[nH]c5ccccc5c4CCN3C[C@@H]2CC[C@@H]1O` [Yohimbine hydrochloride] as the compound, how does the “MBP+ mature oligodendrocyte number” value read?
A: -2.21

Q: For `COC(=O)[C@@H]1[C@H]2C[C@H]3c4[nH]c5ccccc5c4CCN3C[C@@H]2CC[C@@H]1O` [Yohimbine HCl], which “MBP+ mature oligodendrocyte number” value is on record?
A: -3.35

Q: How did the “MBP+ mature oligodendrocyte number” value turn out when `Oc1c2ccccc2c2c3c(cccc13)N=N2` was run?
A: -2.59 ± 1.1

Q: For `O=C1CCc2cc(OCCCCc3nnnn3C3CCCCC3)ccc2N1` [Cilostazol], which “MBP+ mature oligodendrocyte number” value is on record?
A: 6.25 ± 6.1

Q: `N#C[C@@H]1C[C@@H]2C[C@@H]2N1C(=O)[C@@H](N)C12CC3CC(CC(O)(C3)C1)C2` [Saxagliptin] was tested. Which “MBP+ mature oligodendrocyte number” value did it give?
A: 6.46

Q: `CCS(=O)(=O)CCn1c([N+](=O)[O-])cnc1C` [Tinidazole] was tested. Which “MBP+ mature oligodendrocyte number” value did it give?
A: 0.744

Q: Which “MBP+ mature oligodendrocyte number” value does the source give for `CCCCOc1cc(C(=O)NCCN(CC)CC)c2ccccc2n1` [Dibucaine HCl] here?
A: 7.16

Q: For `O=P(O)(O)C(Cl)(Cl)P(=O)(O)O` [Clodronic acid], which “MBP+ mature oligodendrocyte number” value is on record?
A: 0.869

Q: How did the “MBP+ mature oligodendrocyte number” value turn out when `Cc1coc2c1C(=O)C(=O)c1c-2ccc2c(C)cccc12` [Tanshinone I] was run?
A: 2.8

Q: How did the “MBP+ mature oligodendrocyte number” value turn out when `C[C@@]12C[C@@]3(O)O[C@@H](O1)[C@]1(COC(=O)c4ccccc4)[C@H]3C[C@@]12O[C@@H]1O[C@H](CO)[C@@H](O)[C@H](O)[C@H]1O` [Paeoniflorin] was run?
A: -0.556

Q: With `COc1cc(Nc2nc3ccccc3nc2NS(=O)(=O)c2ccc(NC(=O)c3ccc(C)c(OC)c3)cc2)cc(OC)c1` as the compound, how does the “MBP+ mature oligodendrocyte number” value read?
A: 3.94

Q: Which “MBP+ mature oligodendrocyte number” value does the source give for `Cc1ccccc1-n1c(Cn2nc(-c3cccc(O)c3)c3c(N)ncnc32)nc2cccc(C)c2c1=O` here?
A: -4.75

Q: For `CCC1=C(C)CN(C(=O)NCCc2ccc(S(=O)(=O)NC(=O)N[C@H]3CC[C@H](C)CC3)cc2)C1=O` [Glimepiride], which “MBP+ mature oligodendrocyte number” value is on record?
A: 0.72
